This note sets out measurements from article PMC10726135.

The list shows a part of the results. At the low end of the ranking, values are background and their order means little. Measured with an extract: partners may take part in the binding.

For the assay, the target named is T1, HNF4alpha2 (COS-7 nuclear extract) (UniProt P41235).
T1 sequence: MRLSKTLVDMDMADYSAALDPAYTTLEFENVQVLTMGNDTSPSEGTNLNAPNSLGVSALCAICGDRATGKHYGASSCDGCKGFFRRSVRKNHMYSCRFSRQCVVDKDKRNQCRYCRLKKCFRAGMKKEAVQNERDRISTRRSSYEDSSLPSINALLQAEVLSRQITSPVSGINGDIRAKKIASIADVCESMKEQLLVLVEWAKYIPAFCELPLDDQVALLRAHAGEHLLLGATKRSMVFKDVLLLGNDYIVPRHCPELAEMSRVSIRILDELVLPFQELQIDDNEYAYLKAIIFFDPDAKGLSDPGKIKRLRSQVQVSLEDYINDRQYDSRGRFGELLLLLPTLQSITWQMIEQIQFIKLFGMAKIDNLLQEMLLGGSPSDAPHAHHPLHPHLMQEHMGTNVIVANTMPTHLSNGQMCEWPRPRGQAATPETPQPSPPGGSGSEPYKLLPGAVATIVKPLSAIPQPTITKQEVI
The assay can be described thus: protein-binding microarray. Conditions: COS-7 nuclear extract on double-stranded Agilent 4x180k PBM; binding buffer, salt, pH and temperature not given; high values mean tight binding; double strand, one strand shown; sequences stand for … in …GCCTAGGGAGATTAGAGTATCGGTCGA
In the case of AAGCTTAGGAATTCCAAGAAGGCAGACTCA, the binding signal (log2 normalized intensity) is -1.17.
The result for GAGTTGGGGACAAAGTTCAAGGTCCAGCCT reads 5.28.
To GATTTGAAGGAGCAGAATAAGGCCCAGTGT belongs -1.16.
Regarding GTCTCTCAGGCACAGCTCGACCTTTGACCT, the binding signal (log2 normalized intensity) amounted to 10.1.
Take TTTGACATCCAAAGTTTCCTCTCCTGCCCT: the binding signal (log2 normalized intensity) turned out to be 2.16.
To GCTTTGCGGAGAGGGTTCTCACTCCTCTAT belongs 0.0844; to AGACAGTGTGGCAGAAAACGCAATTGCCCT, 1.47; to TGACCACTCTGCCAGGTGACCACTCTGTAA, -0.858.
To ATAAGAAACCCAAGATTTGGTGTTACCTTT belongs 1.43.
The result for CTGCCCTTCCACCCACTTTATCTTCTATAG reads 1.8; that for CTCTGAATAACTGCTTTGTGGCATCAGGGT, 0.92; that for TCCCCAGACAGCCACTGTTTGACGACTGTC, -1.04.
AACGGGTTAGACGCACGGCAGAGCACCTGG: the binding signal (log2 normalized intensity) was -1.09.
In the case of CCGTCAATCTGCAGCCGCCGGAGAATTAAA, the binding signal (log2 normalized intensity) was -0.683.
The result for CTTTCCTGCAGAGGGACTGACTCCCTTTTC reads -0.238; that for TCTGCTACTTAAGATAGAGGCTTTAGCAAT, -0.878.
To TGCAGGTGGGAGAGGGGGACTGCAAGTACG belongs -1.16; to CATATAAGGAACAAAGTCAGGTGCCAAAGG, 1.17; to AAAGTGACACATTCCAGGCGAGTTTGGGCT, -1.13.
The result for TGTGCAGACCTTCTCTGGCCCTCACTTACA reads -1.1; that for AAATTTCAGATATCTGAATGTACCTTTGAA, 2.41; that for ATATCAGTGGCACTCTCTGGGTTAAACGTG, 1.61.
Consider GTCCTTTCAGGACACCTTCAGGGCTGAGCC, for which the binding signal (log2 normalized intensity) came out at 0.581.
To CTGCCTATCTCCTATGAGCCAAACACCATG belongs -1.1; to CCAGAATCCTAACTGCAAGGAAATCTGGGA, -1.24; to GACTTTGGCTTTTCCAAAGGATCCCAGGAA, -0.95.
To GCTGTCAACGGAGGTGGGAAAGACTTAGGA belongs -1.13.
The result for TTAGATAACATCTTTTCTCAGTTAACTGGA reads 0.415; that for GAATGCTTTGAGCCAGAATCTGTCAGCTGC, -1.1.
In the case of GGATATTGGCAACGCCTCAGAAGCAAAGTC, the binding signal (log2 normalized intensity) was -1.24.
For the sequence GGGGAAAGTGCAAGGGCCCAGAGGAAGGAA, the binding signal (log2 normalized intensity) is -1.17.
The result for AGTTGAGAATTCCAGAGATGCCAGGAGAGC reads -1.11.
The result for TAGTTATTCAGTACAGACTTGTGTAATAAC reads 0.916; that for AAAAAGCTATCATTTGTCACTTGGACTATT, 2.8; that for TTGGTGAGTCTTAGGGAGGGGCCAGGACAA, -0.527.
AGCCTTACCAGTAGGACCACATTCAATCAT: the binding signal (log2 normalized intensity) was -1.09.
The result for CTGTGGACTCTGAGCCTCCTCCCTCTCTCT reads 1.7; that for ATAAGGCTAAGTGGAGGATTTGGGTGATGT, 1.39; that for CCCATCGACCTTTGCTCCCGACTCTGAGGC, 5.07.
The result for ATACCCATTCACATGACCTTTGTCCGTTCC reads 7.01; that for AATATCCACACAAACCCAGTTTGCATTTTC, -0.782; that for GTCTCCCTACCTCTGCACAGCTCCAGACAT, -0.855.
To CTGGGTTTCTTCCCTAATGGACATCTCTAG belongs 0.206; to AAAATCAGTCTCAGTGGGCTAAACATCAAG, -0.841.
As for CTAATCAGGCCTCCCTCCCTCCCCCATTAG, the binding signal (log2 normalized intensity) amounted to 4.81.
The result for ACAGAGCTATTTTAGGGTAAAGATCTTGGG reads 0.15.
Turning to GACACAAAAGGGTACAGCAGCATAAAGGAC, the binding signal (log2 normalized intensity) is -1.16.
To AGGCACTGGGATCCAAAGTTCATGGAAAGT belongs 2.4.
To TCTGTATGTCTAAGGTTTCTCAGCCCCATC belongs 4.27; to CTTGGCCTCAATGTTTACACTTCCATGTTT, 1.61.
To CCAAAGGTTAAGGAAACAAGGGTACCAACA belongs -0.844.
Take GATCAAAGGCCACCGTTGGAATGTTCCAAG: the binding signal (log2 normalized intensity) is 1.18.
To CTGATCCTCTCCATGCAGCCAGGGTCAGGA belongs 1.51; to ACGTTTTCCTGCTGACCCTCTCCCCACCAT, 4.72; to AGACATCATATTTGTTATATTTGTTATACC, 1.72.
Turning to GTGAATTTCAGTGCCCTTTGAGATTTGCAT, the binding signal (log2 normalized intensity) amounted to 2.01.
On to AGTGAGCTAAGATTGGACTCTGCACTCCAG, for which the binding signal (log2 normalized intensity) turned out to be 5.21.
The result for CAGAAAAGGTAAGTGACCCTGGTCTTTGCC reads 1.73; that for GAACTCCCTATCCCCAGATTCCAGGGGAGG, -1.26; that for TGAGTATCCAAAGGTCAGTGACAAATGTCA, 3.65.
To TCTTAGCAGAGATTCCTGCTGAGTTATCTC belongs -1.23.
To CTGCCAGTTGTCATTTGGGGCGGGCGGTCG belongs 1.74; to CTAAGGCAGGGAAGGAGAGTGACCTCTGCT, 2.87; to ACTCTAGGAACTTGTCTAAAAACATTGTGG, 1.37.
With ACTCTTTGTTATTTATTGGCCAGTAGCTCT, the binding signal (log2 normalized intensity) is 1.34.
To ACCTGTTACAAAACAGGTTCTTCCACGACT belongs -1.18; to GGGTCCTACAGAACCTCCCTCCCCATCTCC, 3.82; to TCTGCAAACTTCATGGCTTAAAACGACTGA, -0.771.
On to TTTGGAATTTGACCTCATTTGCTCCCAGTG, for which the binding signal (log2 normalized intensity) is 3.85.
To ACATTGTGTCAATTCCAAAGTTCAAGTAGA belongs 3.83.
The result for ACCTTTGCCCTGGATCTTGAAGCAGAAAAC reads 1.58; that for TTAGAGTCCAGACACAAAGAGACAAAGCTT, -1.14.
To ATCCCCAGTATAAACAACACAGAACTAGCC belongs -1.14.
Regarding CTTTTCTTCCCCCCTCCCTCCGCAACCTTT, the binding signal (log2 normalized intensity) came to 5.66.
To ATGAGATAAGATGAAGCTCTCAGAATAGCA belongs -1.16.
In the case of CAGGGTGACGTCATTGGAAATCCGAAATAA, the binding signal (log2 normalized intensity) worked out at 0.688.
In the case of TTAGTCCCTAAGTCTTTCAAAGAAAAGCCT, the binding signal (log2 normalized intensity) is -1.04.
To GTCCAGCCACAATTAATGTACCCCCGGAAA belongs 4.29.
As for AAGAGAGAAAGAAACAGGGGATGTTGATTC, the binding signal (log2 normalized intensity) was -1.02.
To GCTGACGCCGCCTCTGCCTCTTGACCCCTT belongs 5.39.
The result for CTTGTGGATCCTTGGAGGACCTTGGGTTCA reads 2.49.
On to CATCCTGAGGCAAAATTCCTCGCTAGCTGT, for which the binding signal (log2 normalized intensity) was -1.23.
In the case of AATATCTTCCCATAAAACCTAGACAGAAGC, the binding signal (log2 normalized intensity) was -1.19.
To GATGGGGGCAAAGGTTGACACCTAGCTGAG belongs 4.08; to CACAGGAGAGGAGAAAGAGCAATCTCTCAT, -1.17.
In the case of TGGGAGCTAATGAGCACATTCTTCAATATC, the binding signal (log2 normalized intensity) is -1.01.
On to TTTCACTTTTTCCCTGCATGTTCACCTCTT, for which the binding signal (log2 normalized intensity) stood at 1.51.
The result for TAGCCACTCTACAACAAAGGAAATGAAGCA reads -0.885; that for GGAAAGCTATCCCGGCCAACGGTCGGAAGG, -0.959; that for GGCGTCTCTTAGTATTACCATGTCCTGTGA, 1.09.
To AAAATCACTTGGATAGCGCGTGGCCCAAGG belongs -1.17; to AGCACTCAAATGATCAAAGAAGCCCAGGGC, -1.08.
Take GCTATCAATGACCCATGTTTGCCCTTGATA: the binding signal (log2 normalized intensity) is 2.46.
